# In article PMC4336329 (PLoS ONE, 2015):
# In all, about 310,000 compounds went through this assay and about 14,000 (4.5%) showed an effect of 50% or more. The effect is printed as a negative number. Some of the results follow.
# Molecular target: human ether-à-go-go-related gene (hERG) potassium channel (human, UniProt Q12809)
# Assay: primary screen, population patch clamp on CHO cells stably expressing hERG
# 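Further: peak tail current of the secondary pulse compared with the same well before compound.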
# Sequence of human ether-à-go-go-related gene (hERG) potassium channel (Q12809 whole entry, looked up): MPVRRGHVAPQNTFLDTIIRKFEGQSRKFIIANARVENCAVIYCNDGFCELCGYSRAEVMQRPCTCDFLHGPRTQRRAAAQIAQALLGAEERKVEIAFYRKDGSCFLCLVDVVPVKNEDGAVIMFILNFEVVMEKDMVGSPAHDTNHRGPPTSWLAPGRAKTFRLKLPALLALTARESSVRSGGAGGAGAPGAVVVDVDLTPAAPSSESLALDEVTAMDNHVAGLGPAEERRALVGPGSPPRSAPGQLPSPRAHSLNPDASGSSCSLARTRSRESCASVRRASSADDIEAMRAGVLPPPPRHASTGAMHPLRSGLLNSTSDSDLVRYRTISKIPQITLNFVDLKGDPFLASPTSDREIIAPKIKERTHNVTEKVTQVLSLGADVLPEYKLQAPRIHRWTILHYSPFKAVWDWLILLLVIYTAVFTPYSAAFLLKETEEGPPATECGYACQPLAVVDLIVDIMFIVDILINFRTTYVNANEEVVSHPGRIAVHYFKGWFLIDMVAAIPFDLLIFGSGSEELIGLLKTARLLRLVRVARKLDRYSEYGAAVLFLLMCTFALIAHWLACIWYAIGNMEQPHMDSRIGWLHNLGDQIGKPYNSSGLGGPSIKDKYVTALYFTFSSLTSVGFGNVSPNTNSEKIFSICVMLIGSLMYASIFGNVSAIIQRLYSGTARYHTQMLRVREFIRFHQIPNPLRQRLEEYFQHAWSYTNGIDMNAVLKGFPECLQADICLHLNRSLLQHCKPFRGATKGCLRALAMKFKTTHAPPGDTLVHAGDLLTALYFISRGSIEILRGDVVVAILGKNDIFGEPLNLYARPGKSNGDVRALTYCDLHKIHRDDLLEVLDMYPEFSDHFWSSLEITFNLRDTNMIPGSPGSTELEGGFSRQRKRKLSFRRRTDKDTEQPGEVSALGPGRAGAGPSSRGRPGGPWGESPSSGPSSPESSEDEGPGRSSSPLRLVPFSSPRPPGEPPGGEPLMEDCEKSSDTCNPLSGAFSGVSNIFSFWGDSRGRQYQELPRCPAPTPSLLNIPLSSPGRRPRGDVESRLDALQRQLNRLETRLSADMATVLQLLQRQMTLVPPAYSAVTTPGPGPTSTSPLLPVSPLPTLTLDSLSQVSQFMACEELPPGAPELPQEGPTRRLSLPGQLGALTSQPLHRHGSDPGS
row,SMILES,"hERG current change (%, negative = inhibition) at 10uM [%]"
1,Cc1ccc(-c2nnn(CC(=O)N(c3cccc(F)c3)C(C(=O)NC3CCCC3)c3ccncc3)n2)o1 (stereo not shown),15.5
2,CCCNC(=O)N[C@@H](CCSC)C(=O)OC,11.7
3,O=C(Nc1ccc(Oc2ccc(NC(=O)Nc3ccccc3Cl)cc2)cc1)Nc1ccccc1Cl,23.4
4,CCOc1ccccc1CNCCO.Cl,12.1
5,CSc1ccc(/C=N/n2c(Cc3ccc(Br)cc3)n[nH]c2=S)cc1,-7.71
6,Cc1ccc(-c2nnc(N3CCN(C(=O)Cn4c(=O)n(C)c5ccccc54)CC3)c3ccccc23)cc1,-28.7
7,CCOc1ccc(-n2cc(C(=O)N3CCN(C)CC3)c3cc(OC)c(OC)cc3c2=O)cc1,4.98
8,CC(C)CCN1CC(C(=O)NCCC2=CCCCC2)CC1=O (stereo not shown),-7.57
9,O=C(CSc1nnc(NC(=O)C2CC(=O)N(c3ccccc3)C2)s1)NCc1ccco1 (stereo not shown),16.9
10,Cc1sc2ncn(CC(=O)NCCCC(=O)N3CCN(c4ccccn4)CC3)c(=O)c2c1C,-11
11,CCCCN1C(=O)c2ccc(C(=O)NC3(C)CCS(=O)(=O)C3)cc2C1=O (stereo not shown),-14
12,COc1ccc(C(=O)N2CCN(Cc3ccccc3C(F)(F)F)CC2)cc1.O=C(O)C(=O)O,-1.25
13,COc1ccc(Br)cc1S(=O)(=O)n1nc(C)cc1C,-7.5
14,CCOC(=O)N1CCN(C(=O)Nc2ccc3nccnc3c2)CC1,5.35
15,CCC(=O)c1ccc(OCC(=O)Nc2nn3cnnc3s2)cc1,10.1
16,NC(=O)CC(NC(=O)Cc1ccc(Br)cc1)c1ccc(N2CCN(c3ccccc3)CC2)c([N+](=O)[O-])c1 (stereo not shown),0.863
17,COc1cc(C(=O)N[C@@H](C)C(=O)N2CCC3(CC2)NCCc2[nH]cnc23)cc(OC)c1OC,19.2
18,COc1cc(/C=C/C(=O)OCC(=O)N2CCCc3ccccc32)ccc1OCC#N,-5.05
19,Cc1ccc(SCC(=O)NCCSC(C)(C)C)cc1,-6.91
20,Cc1nc2ccc([N+](=O)[O-])cc2c(=O)n1Cc1ccc(Br)cc1,7.76
21,COc1ccc(OC)c(C2C(C(C)=O)=C(O)C(=O)N2CCC(=O)O)c1 (stereo not shown),-2.97
22,CCn1ncc(N(C)N)c(Cl)c1=O,23.5

row,SMILES,"hERG current change (%, negative = inhibition) at 10uM [%]"
1,CCOC(=O)c1csc(NC(=O)CSc2nnnn2-c2ccc(OC)cc2)n1,7.08
2,COC(=O)N/N=C/c1ccc([N+](=O)[O-])o1,-6.11
3,CCC(C)(C)n1nnnc1C(c1cc2cc(C)cc(C)c2[nH]c1=O)N1CCN(C(=O)c2ccco2)CC1 (stereo not shown),-11.5
4,CC1CCCN(CCCNC(=O)C2CCC(CNS(=O)(=O)c3cccc4nsnc34)CC2)C1 (stereo not shown),-6.49
5,CCN1C(=O)/C(=C/c2cc(C)n(C)c2C)SC1=Nc1ccc(OC)cc1,9.24
6,CC1CCCN(C(=O)CSc2nnc(-c3c[nH]c4ccccc34)o2)C1 (stereo not shown),-0.849
7,c1ccc(CCCOCCC2CO2)cc1 (stereo not shown),6.22
8,CC(=O)Nc1cc2ccc(OC(C)=O)cc2oc1=O,10.4
9,COc1ccc(-c2cc(=O)[nH]c(N3CCN(Cc4ccccc4)CC3)n2)cc1,10.4
10,Cc1ccc(S(=O)(=O)CCC(=O)OCC(=O)c2ccc(F)cc2)cc1,6.79
11,COc1ccc(CCNC(=O)C2CCN(C(=O)NC3CCCCC3)CC2)cc1,8.09
12,O=C(O)c1ccc(N/N=C/c2ccc(C(F)(F)F)cc2)cc1.O=S(=O)(O)O,0.301
13,CCN(CC)S(=O)(=O)c1cccc(C(=O)N2CC(O)CC2C(=O)O)c1 (stereo not shown),-1.47
14,NC1=NC(=Nc2ccc(S(=O)(=O)N3CCOCC3)cc2)c2ccccc21,10.4
15,O=C(Cc1sc(-c2ccccc2)nc1-c1ccccc1)Nc1ccc(Cl)cc1,2.51
16,CC(=O)C1=C(O)C(=O)N(CCc2c[nH]c3ccccc23)C1c1cccc(O)c1 (stereo not shown),9.33
17,CCN1CCN(C(=S)c2ccc(O)cc2)CC1,11
18,Fc1ccc(CSc2ccc(-c3cccs3)nn2)cc1,13.2
19,O=C(O)c1ccc(-c2ccccc2)[nH]c1=O,7.95
20,COc1ccc(Cl)cc1NC(=O)CSc1nc(N2CCOCC2)nc(N2CCOCC2)n1,-9.85
21,O=C(c1cnc2ccccn2c1=O)N1CCCc2ccccc21,-1.57
